Several values for one entry are separate records, joined by “and”; a condition that tells them apart may be missing. Equal entries are not always repeated.
Assays:
[1] = biological target: T1, human C1q (complement component 1, q subcomponent) (human, UniProt P02745; P02746; P02747); assay: not described at this place
T1 construct: also called hu-C1q

[2] = biological target: T2, human PD-1 on stably transfected Jurkat cells (human, UniProt Q15116 25-288); assay: FACS, Jurkat/human-PD-1, repeat 1
T2 construct: also called Jurkat/Human-PD-1; Human-PD-1/Jurkat

[3] = biological target: T3, mouse-PD-1 (recombinant purified, Example 12) (mouse, UniProt Q02242 25-167, limits assumed); assay: SPR (ProteOn NLC chip), 25 C, n 5
T3 sequence (looked up): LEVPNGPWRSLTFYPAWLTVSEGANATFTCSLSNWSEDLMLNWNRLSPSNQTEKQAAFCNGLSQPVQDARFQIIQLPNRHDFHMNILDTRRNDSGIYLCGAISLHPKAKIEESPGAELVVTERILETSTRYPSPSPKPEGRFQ

[4] = biological target: cynomolgus monkey-PD-1 (His-tagged monomer) (cynomolgus monkey, UniProt B0LAJ3 25-170); assay: SPR (ProteOn NLC chip), 37 C, n 8
[5] = biological target: T4, human PD-1 (hPD-1) monomer (human, UniProt Q15116 part only); assay: SPR (ProteOn NLC chip), 37 C, n 15
T4 construct: also called hu-PD-1; not shown: His tag (His-tagged monomer)

[6] = biological target: hu-FCGRIIIa (hu-CD16a) 158F (human, UniProt P08637 part only, limits assumed); assay: SPR (ProteOn NLC chip), 25 C, pH 7.4
[7] = biological target: T5, rat PD-1 on primary rat T cells (rat, UniProt D3ZIN8 25-287); assay: flow cytometry, activated primary T cells
T5 sequence: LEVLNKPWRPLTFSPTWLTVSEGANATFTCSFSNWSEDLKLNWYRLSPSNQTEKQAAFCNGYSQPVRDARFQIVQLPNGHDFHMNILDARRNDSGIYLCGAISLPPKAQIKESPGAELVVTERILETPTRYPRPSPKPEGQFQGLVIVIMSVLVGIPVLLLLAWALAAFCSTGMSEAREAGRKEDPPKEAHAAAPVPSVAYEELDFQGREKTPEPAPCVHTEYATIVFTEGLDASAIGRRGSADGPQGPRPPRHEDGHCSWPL

[8] = biological target: T2, human PD-1 on stably transfected Jurkat …; assay: FACS, Jurkat/human-PD-1, average ± sem
hu-FCGRI (hu-CD64) = biological target: T6, hu-FCGRI (hu-CD64) (human, UniProt P12314 16-288, limits assumed); assay: SPR (ProteOn NLC chip), 25 C, pH 7.4, n = 14
T6 construct: also called human Fc gamma receptor I

[9] = biological target: T7, cynomolgus monkey PD-1 on stably transfected Jurkat cells (cynomolgus monkey); assay: FACS, Jurkat/cynomolgus monkey-PD-1, repeat 1
T7 construct: whole, on cells; also called Jurkat/Cynomolgus Monkey-PD-1; Cynomolgus Monkey-PD-1/Jurkat

[10] = biological target: T8, cynomolgus monkey PD-1 on primary cynomolgus monkey T cells (cynomolgus monkey, UniProt B0LAJ3 25-288); assay: FACS, activated primary cynomolgus monkey T cells, individual 2
T8 construct: also called PD-1 on cyno T cells

[11] = biological target: T7, cynomolgus monkey PD-1 on stably …; assay: FACS, blockade of cyno PD-L1 on cyno-PD-1/Jurkat, average ± sem
[12] = biological target: T4, human PD-1 (hPD-1) monomer; assay: SPR (ProteOn), hPD-1 monomer over amine-coupled IgG, 25 C; N = 2
Description: All interaction analysis was performed on label-free biosensors at 25° C. unless stated otherwise. Surface plasmon resonance biosensors (ProteOn-XPR™ from BioRad™, and Biacore 2000™ and Biacore T200™ from GE Life Sciences) were used to study human and cynomolgus monkey PD-1 and a biolayer interferometry biosensor (Octet-Red384, Fortebio/Pall Life Sciences) was used to study mouse PD-1. ProteOn experiments were performed in PBS pH 7.4+0.01% Tween-20 (PBST) running buffer. Biacore experiments were performed in 10 mM Hepes pH 7.4, 150 mM NaCl, 0.05% Tween-20 (HBST+) and Octet experiments were performed in HBST+ with 1 g/l BSA. The ProteOn data were processed in the ProteOn Manager software, the Biacore data were processed in Biaevaluation, and the Octet data were simply aligned to zero in the control software.
The surfaces for these experiments were prepared in three steps; (1) the ligand channels were minimally activated for two min using a freshly prepared mixture of the activation reagents at final 0.8 mM EDC and 0.2 mM sulfo-NHS in water, (2) the IgGs were coupled for three min at 15 μg/ml in 10 mM sodium acetate pH 4.5, and (3) excess reactive esters were blocked for three min with 1 M ethanolamine HCl pH 8.5. […] Association and dissociation times were 3 min and 20 min, respectively and all analytes were injected in duplicate binding cycles. […]

[13] = biological target: T9, human PD-1 on primary human T cells (human, UniProt Q15116 25-288); assay: FACS, blockade of PD-L1 Fc binding to PD-1 on activated human T cells
T9 construct: Endogenous PD-1 of donor T cells; also called hu-PD-1; PD-1 on human T cells

[14] = biological target: T7, cynomolgus monkey PD-1 on stably …; assay: FACS, blockade of cyno PD-L1 (20 µg/mL) on cyno-PD-1/Jurkat, repeat 1
[15] = biological target: T7, cynomolgus monkey PD-1 on stably …; assay: FACS, blockade of cyno PD-L1 (20 µg/mL) on cyno-PD-1/Jurkat, repeat 2
[16] = biological target: T2, human PD-1 on stably transfected Jurkat …; assay: FACS, blockade of biotinylated hu-PD-L1 (20 µg/mL) on human-PD-1/Jurkat, repeat 1
[17] = biological target: T2, human PD-1 on stably transfected Jurkat …; assay: FACS, blockade of biotinylated hu-PD-L1 (20 µg/mL) on human-PD-1/Jurkat, repeat 2

T4 sequence (Q15116 25-167 limits assumed): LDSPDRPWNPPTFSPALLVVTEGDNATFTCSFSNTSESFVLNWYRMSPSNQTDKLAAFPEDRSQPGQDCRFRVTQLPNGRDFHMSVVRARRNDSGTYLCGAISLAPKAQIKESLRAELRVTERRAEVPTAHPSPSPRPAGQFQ
Sequence of hu-FCGRI (hu-CD64) (P12314 16-288 limits assumed): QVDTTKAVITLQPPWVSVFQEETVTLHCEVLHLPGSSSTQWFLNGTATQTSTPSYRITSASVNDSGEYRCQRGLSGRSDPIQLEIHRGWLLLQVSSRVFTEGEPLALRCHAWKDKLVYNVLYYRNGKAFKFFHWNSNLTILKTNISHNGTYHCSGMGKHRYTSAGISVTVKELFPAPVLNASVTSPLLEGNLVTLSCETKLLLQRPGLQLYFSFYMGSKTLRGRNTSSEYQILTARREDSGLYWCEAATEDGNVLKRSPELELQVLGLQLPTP
Sequence of UniProt P08637 (P08637 17-208 limits assumed): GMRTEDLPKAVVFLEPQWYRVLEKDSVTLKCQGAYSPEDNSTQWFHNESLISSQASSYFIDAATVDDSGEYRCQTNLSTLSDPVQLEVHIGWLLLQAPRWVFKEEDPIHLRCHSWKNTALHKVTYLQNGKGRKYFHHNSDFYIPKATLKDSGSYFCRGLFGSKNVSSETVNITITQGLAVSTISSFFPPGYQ
T1 sequence (P02745 23-245 limits assumed, chain 1 of 3): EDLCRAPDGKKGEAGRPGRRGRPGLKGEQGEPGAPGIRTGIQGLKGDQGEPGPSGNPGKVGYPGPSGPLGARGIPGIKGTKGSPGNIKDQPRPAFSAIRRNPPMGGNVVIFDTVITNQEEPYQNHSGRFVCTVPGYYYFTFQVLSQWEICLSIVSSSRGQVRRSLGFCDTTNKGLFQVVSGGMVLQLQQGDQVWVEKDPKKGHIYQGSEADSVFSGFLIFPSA
T1 sequence (P02746 28-253 limits assumed, chain 2 of 3, further chain): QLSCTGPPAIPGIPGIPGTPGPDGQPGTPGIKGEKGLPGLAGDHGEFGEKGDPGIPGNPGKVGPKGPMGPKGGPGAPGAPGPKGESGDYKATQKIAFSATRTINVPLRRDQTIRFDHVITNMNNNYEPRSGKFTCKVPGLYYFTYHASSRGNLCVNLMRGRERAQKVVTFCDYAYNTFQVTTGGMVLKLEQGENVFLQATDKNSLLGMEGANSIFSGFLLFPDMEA
T1 sequence (P02747 29-245 limits assumed, chain 3 of 3, further chain): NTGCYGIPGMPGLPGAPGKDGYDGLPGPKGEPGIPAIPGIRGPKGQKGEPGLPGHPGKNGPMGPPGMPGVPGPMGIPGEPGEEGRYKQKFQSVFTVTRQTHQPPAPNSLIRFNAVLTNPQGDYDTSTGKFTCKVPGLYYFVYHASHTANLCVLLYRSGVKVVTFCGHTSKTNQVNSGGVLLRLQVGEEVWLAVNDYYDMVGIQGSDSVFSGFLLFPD

binding result [1]: binds
EC50 [2]: 62.8 pM
Kd [3]: 900000 pM
koff [3]: 0.0052 s⁻¹
kon [3]: 6000 M⁻¹ s⁻¹
Kd [4]: 115 pM
koff [4]: 0.000112 s⁻¹
kon [4]: 980000 M⁻¹ s⁻¹
kon [5]: 840000 M⁻¹ s⁻¹
binding result [6]: binds
binding result [7]: no binding
EC50 [8]: 64.7 pM
Kd (hu-FCGRI (hu-CD64)): 146 pM
EC50 [9]: 181 pM
EC50 [10]: 97.1 pM
IC50 [11]: 943 pM
Kd [12]: < 94 pM
kon [12]: 453000 M⁻¹ s⁻¹ and 445000 M⁻¹ s⁻¹
IC50 [13]: 1120 pM
IC50 [14]: 833 pM
IC50 [15]: 1050 pM
IC50 [16]: 590 pM
IC50 [17]: 1170 pM
B1: mAb7 (human IgG4 kappa, hinge stabilized) (antibody)
heavy: QVQLVQSGAEVKKPGASVKVSCKASGYTFTSYWINWVRQAPGQGLEWMGNIYPGSSLTNYNEKFKNRVTMTRDTSTSTVYMELSSLRSEDTAVYYCARLSTGTFAYWGQGTLVTVSSASTKGPSVFPLAPCSRSTSESTAALGCLVKDYFPEPVTVSWNSGALTSGVHTFPAVLQSSGLYSLSSVVTVPSSSLGTKTYTCNVDHKPSNTKVDKRV[human IgG4 Fc with S228P (EU numbers) skipped]
light: DIVMTQSPDSLAVSLGERATINCKSSQSLWDSGNQKNFLTWYQQKPGQPPKLLIYWTSYRESGVPDRFSGSGSGTDFTLTISSLQAEDVAVYYCQNDYFYPHTFGGGTKVEIKRGTVAAPSVFIFPPSDEQLKSGTASVVCLLNNFYPREAKVQWKVDNALQSGNSQESVTEQDSKDSTYSLSSTLTLSKADYEKHKVYACEVTHQGLSSPVTKSFNRGEC
notes: also called mAb7-G4; mAb7 (G4); copies: 2 + 2

Source: US20190083612A1 (RINAT NEUROSCIENCE, published 2019)
